At least one compound was matched to its structure with a doubt left. Some of these results come from one statement about several compounds together. Positions of bridges follow the written chain, without caps; N, C: chain ends. Non-standard residues stand in square brackets, D forms with d. Residues, ends and D or L forms follow the SMILES beside them. PEG6 = NCCOCCOCCOCCOCCOCCOCCC(=O)O; Pra = C#CC[C@H](N)C(=O)O
Key:
[1] = biological target: T1, hVEGF-A (8-109) (Homo sapiens, UniProt P15692); assay: SPR binding assay (BIACORE 3000, 37° C.)
T1 sequence (P15692 34-135 isoform P15692-4): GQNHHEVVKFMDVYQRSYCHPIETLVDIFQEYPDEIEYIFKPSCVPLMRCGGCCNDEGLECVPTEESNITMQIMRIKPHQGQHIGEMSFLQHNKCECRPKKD
Description: Depending on the format of the assay either a streptavidin sensor (SA) or a dextran-coated (CM5) sensor was utilized as described below.
For use with the SA sensor, VEGF-A was first biotinylated (no more than 2 biotin/VEGF-A) by incubating the protein with EZ-link NHS-PEG4-Biotin (Pierce) in a 1:1.5 molar ratio respectively, in PBS for 2 hours on ice. Reaction was then quenched by addition of 10 molar excess of Glycine pH 8.0 and the sample was buffer exchanged into PBS using an Amicon 0.5 mL 3000 MWCO ultra-centrifugal filters (EMD Millipore). The biotinylation state of the protein was verified by LC-MS analysis. Biotinylated VEGF-A was then captured on the surface until a resonance unit (RU) signal of about ˜400. For immobilization of VEGF-A on CM5 sensor, the surface was first activated with a mixture of N-ethyl-N′-(3-dimethylaminopropyl)carbodiimide hydrochloride and N-hydroxysuccinimide (EDC/NHS) according to the supplier instructions. VEGF-A was then diluted into coupling buffer (0.1 M Acetate Buffer, pH 5.0) and injected until the signal reached about ˜400 RU followed by a wash with 1 M ethanolamine pH 8.0 to quench remaining activated sites.
Following the capture step, a series of the peptide concentrations were prepared in HBS-EP buffer with matching DMSO concentrations to 0.1% and injected at a flow rate of […]. The resulting sensorgrams were then analyzed using a 1:1 binding model to obtain kinetic data and affinities using Scrubber 2.0 (BioLogic Software).

[2] = biological target: T2, hVEGF-A (Homo sapiens, UniProt P15692); assay: KDR-CHO VEGF assay to determine cellular IC50 (VEGF mediated Tyr phosphorylation of KDR); type: cell-based; details: for IC50: read-out: Cellular IC50, Table 28
T2 sequence (P15692 207-395): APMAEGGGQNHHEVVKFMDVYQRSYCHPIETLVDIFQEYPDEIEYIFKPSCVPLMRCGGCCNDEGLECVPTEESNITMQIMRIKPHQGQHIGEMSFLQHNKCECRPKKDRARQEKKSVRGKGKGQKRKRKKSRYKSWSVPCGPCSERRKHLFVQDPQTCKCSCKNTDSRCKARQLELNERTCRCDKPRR
Description: KDR-CHO cells (CHO cells stably transfected with gD tagged-KDR) were grown in cell growth medium (DMEM/Ham's F-12, 10% diafiltered FBS (GIBCO catalog no. 26400), 25 mM HEPES, 2 mM L-GLUTAMAX™). For VEGF stimulation assay, 5×10^4 cells/well were plated in 100 μl of cell plating medium (DMEM/Ham's F-12, 0.2% BSA, 0.25% diafiltered FBS, 25 mM HEPES, 2 mM L-GLUTAMAX™) in 96-well tissue culture plate and incubated at 37° C. overnight. The medium was replaced with 100 I1 of serum-free cell stimulation medium (DMEM/Ham's F-12, 0.5% BSA, 25 mM HEPES) and cells were incubated at 37° C. for 2 hr. One hour before stimulation, the medium was replaced with 50 I1 of serum-free cell stimulation medium. Concurrently, VEGF (50 ng/ml for hVEGF, 100 ng/ml for mVEGF and rVEGF) was pre-incubated with titrated amount of CKP or anti-VEGF in 50 μl of serum-free cell stimulation medium at 37° C. for 1 hour and added to the cells. The cells were stimulated for 15 min at 37 C and the medium is removed. The cells were lysed with 130 I1 of ice-cold cell lysis buffer (150 mM NaCl, 50 mM HEPES, 0.5% Triton-X 100, HALT protease and phosphatase inhibitor cocktail (ThermoFisher Scientific, Inc. catalog no. 78444), 5 mM EDTA). VEGF mediated Tyr phosphorylation of KDR was determined by ELISA-based assay. Briefly, MAXISORP™ 96 well plates (ThermoFisher Scientific, Inc. catalog no. 439454) were coated with 100 I1 of anti-gD antibody diluted in PBS (1 μg/ml) at 4° C. overnight and washed three times with washing buffer (PBS, 0.05% TWEEN®20, pH 7.4). The plates were blocked with 300 I1 of blocking buffer (PBS, 0.5% BSA) at room temperature for 1 hour followed by washing three times with washing buffer. The above KDR-CHO cell lysate (100 μl) was added to each well and incubated at room temperature for 2 hours. The plates were washed four times with washing buffer followed by incubation with 100 I1 of 0.5 μg/ml biotin-conjugated anti-phosphotyrosine (clone 4G10, Millipore catalog no. 16-103) in blocking buffer at room temperature for 2 hours. After washing four times, the plates were incubated with 100 I1 of HRP-conjugated streptavidin in blocking buffer at room temperature for 30 min. After washing four times, the plates were developed with 100 I1 of TMB substrate (BD Biosciences) at room temperature for 20-30 min and stopped by addition of 50 μl of H2SO4 solution. The optical density of each well was determined using a microplate reader set to 450 nm.

[3] = Table 37, surface plasmon resonance, VEGF-A

Row | Compound | Kd [1, 3] | IC50 [2] | other results
1 | CC[C@H](C)[C@@H]1NC(=O)[C@H](CC(N)=O)NC(=O)[C@@H](NC(=O)CN)CSSC[C@@H](C(=O)N[C@H](C(=O)N[C@H]2CSSC[C@@H](C(=O)NCC(=O)O)NC(=O)[C@H](CO)NC(=O)[C@H](CCC(N)=O)NC(=O)[C@H](Cc3ccc(O)cc3)NC(=O)[C@H](Cc3ccc(O)cc3)NC(=O)[C@H](CCC(N)=O)NC2=O)C(C)C)NC(=O)CNC(=O)[C@H](C)NC(=O)[C@H](CC(C)C)NC(=O)[C@@H]2CSSC[C@H](NC(=O)CNC(=O)[C@H](Cc3c[nH]c4ccccc34)NC(=O)[C@H](Cc3ccc(O)cc3)NC(=O)[C@@H]3CCCN3C(=O)[C@H](CC(C)C)NC(=O)[C@H](CCSC)NC1=O)C(=O)NCC(=O)N[C@@H](CCC(N)=O)C(=O)N[C@@H](CO)C(=O)N[C@@H](Cc1ccccc1)C(=O)N[C@@H](CCC(=O)O)C(=O)N2 [VEGF_CKP9.54.1.F8Y] (H-GCNIMLPYWGCGQSFECLAGCVCQYYQSCG-OH; disulfide 2-21, 11-17, 23-29 (inferred); N-terminus and C-terminus assumed) | 0.78 ± 0.11 nM |  | 
2 | CC[C@H](C)[C@@H]1NC(=O)[C@H](CC(N)=O)NC(=O)[C@@H](NC(=O)CN)CSSC[C@@H](C(=O)N[C@H](C(=O)N[C@H]2CSSC[C@@H](C(=O)NCC(=O)O)NC(=O)[C@H](CO)NC(=O)[C@H](CCC(N)=O)NC(=O)[C@H](Cc3ccc(O)cc3)NC(=O)[C@H](Cc3ccc(O)cc3)NC(=O)[C@H](CCC(N)=O)NC2=O)C(C)C)NC(=O)CNC(=O)[C@H](C)NC(=O)[C@H](CC(C)C)NC(=O)[C@@H]2CSSC[C@H](NC(=O)CNC(=O)[C@H](Cc3c[nH]c4ccccc34)NC(=O)[C@H](Cc3ccccc3)NC(=O)[C@@H]3CCCN3C(=O)[C@H](CC(C)C)NC(=O)[C@H](CCSC)NC1=O)C(=O)NCC(=O)N[C@@H](CCC(N)=O)C(=O)N[C@@H](CO)C(=O)N[C@@H](Cc1ccccc1)C(=O)N[C@@H](CCC(=O)O)C(=O)N2 [VEGF_CKP9.54.1] (H-GCNIMLPFWGCGQSFECLAGCVCQYYQSCG-OH; disulfide 2-21, 11-17, 23-29 (inferred); N-terminus and C-terminus assumed) | 2.2 ± 0.7 nM | 1.47 nM | 
3 | CC[C@H](C)[C@@H]1NC(=O)[C@H](CC(N)=O)NC(=O)[C@@H](NC(=O)CN)CSSC[C@@H](C(=O)N[C@H](C(=O)N[C@H]2CSSC[C@@H](C(=O)NCC(=O)O)NC(=O)[C@H](CO)NC(=O)[C@H](CCC(N)=O)NC(=O)[C@H](Cc3ccc(O)cc3)NC(=O)[C@H](Cc3ccc(O)cc3)NC(=O)[C@H](CCC(N)=O)NC2=O)C(C)C)NC(=O)CNC(=O)[C@H](C)NC(=O)[C@H](CC(C)C)NC(=O)[C@@H]2CSSC[C@H](NC(=O)CNC(=O)[C@H](Cc3c[nH]c4ccccc34)NC(=O)[C@H](Cc3ccccc3)NC(=O)[C@@H]3CCCN3C(=O)[C@H](CC(C)C)NC(=O)[C@H](CCSC)NC1=O)C(=O)NCC(=O)N[C@@H](CC(C)C)C(=O)N[C@@H](CC(=O)O)C(=O)N[C@@H](Cc1ccc(O)cc1)C(=O)N[C@@H](CC(=O)O)C(=O)N2 [VEGF_CKP9.54.2] (H-GCNIMLPFWGCGLDYDCLAGCVCQYYQSCG-OH; disulfide 2-21, 11-17, 23-29; N-terminus and C-terminus assumed) |  | 4.3 nM | 
4 | C#CC[C@H](N)C(=O)NCCOCCOCCOCCOCCOCCOCCC(=O)N[C@H]1CSSC[C@@H](C(=O)N[C@H](C(=O)N[C@H]2CSSC[C@@H](C(=O)NCC(=O)O)NC(=O)[C@H](CO)NC(=O)[C@H](CCC(N)=O)NC(=O)[C@H](Cc3ccc(O)cc3)NC(=O)[C@H](Cc3ccc(O)cc3)NC(=O)[C@H](CCC(N)=O)NC2=O)C(C)C)NC(=O)CNC(=O)[C@H](C)NC(=O)[C@H](CC(C)C)NC(=O)[C@@H]2CSSC[C@H](NC(=O)CNC(=O)[C@H](Cc3c[nH]c4ccccc34)NC(=O)[C@H](Cc3ccccc3)NC(=O)[C@@H]3CCCN3C(=O)[C@H](CC(C)C)NC(=O)[C@H](CCSC)NC(=O)[C@H]([C@@H](C)CC)NC(=O)[C@H](CC(N)=O)NC1=O)C(=O)NCC(=O)N[C@@H](CCCNC(=N)N)C(=O)N[C@@H](CC(=O)O)C(=O)N[C@@H](Cc1ccccc1)C(=O)N[C@@H](CCC(=O)O)C(=O)N2 [VEGF_CKP9.54.90-Alkyn] (H-[Pra][PEG6]CNIMLPFWGCGRDFECLAGCVCQYYQSCG-OH; disulfide 3-22, 12-18, 24-30; N-terminus and C-terminus assumed) | 0.49 ± 0.05 nM |  | 
5 | CC[C@H](C)[C@@H]1NC(=O)[C@H](CC(N)=O)NC(=O)[C@@H](NC(=O)CN)CSSC[C@@H](C(=O)N[C@H](C(=O)N[C@H]2CSSC[C@@H](C(=O)NCC(=O)O)NC(=O)[C@H](CO)NC(=O)[C@H](CCC(N)=O)NC(=O)[C@H](Cc3ccc(O)cc3)NC(=O)[C@H](Cc3ccc(O)cc3)NC(=O)[C@H](CCC(N)=O)NC2=O)C(C)C)NC(=O)CNC(=O)[C@H](C)NC(=O)[C@H](CC(C)C)NC(=O)[C@@H]2CSSC[C@H](NC(=O)CNC(=O)[C@H](Cc3c[nH]c4ccccc34)NC(=O)[C@H](Cc3ccc(O)cc3)NC(=O)[C@@H]3CCCN3C(=O)[C@H](CC(C)C)NC(=O)[C@H](CCSC)NC1=O)C(=O)NCC(=O)N[C@@H](CCCNC(=N)N)C(=O)N[C@@H](CC(=O)O)C(=O)N[C@@H](Cc1ccccc1)C(=O)N[C@@H](CCC(=O)O)C(=O)N2 [VEGF_CKP9.54.90.F8Y] (H-GCNIMLPYWGCGRDFECLAGCVCQYYQSCG-OH; disulfide 2-21, 11-17, 23-29 (inferred); N-terminus and C-terminus assumed) | 0.4 ± 0.05 nM |  | 
6 | CSCC[C@@H]1NC(=O)[C@H](CCC(=O)O)NC(=O)[C@@H]2CSSC[C@H](NC(=O)[C@H](CC(=O)O)NC(=O)[C@H](Cc3ccccc3)NC(=O)[C@H](CC(=O)O)NC1=O)C(=O)N[C@@H](CC(C)C)C(=O)N[C@@H](C)C(=O)NCC(=O)N[C@H](C(=O)N[C@H](C(=O)N[C@H]1CSSC[C@@H](C(=O)NCC(=O)O)NC(=O)[C@H](CO)NC(=O)[C@H](CC(N)=O)NC(=O)[C@H](Cc3ccc(O)cc3)NC(=O)[C@H](Cc3c[nH]c4ccccc34)NC(=O)[C@H](Cc3c[nH]cn3)NC1=O)C(C)C)CSSC[C@H](NC(=O)CN)C(=O)N[C@@H](CC(=O)O)C(=O)N[C@@H](C(C)C)C(=O)N[C@@H](CCSC)C(=O)N[C@@H](CCC(N)=O)C(=O)N1CCC[C@H]1C(=O)N[C@@H](Cc1ccc(O)cc1)C(=O)N[C@@H](Cc1c[nH]c3ccccc13)C(=O)NCC(=O)N2 [VEGF_CKP9.63.44] (H-GCDVMQPYWGCEMDFDCLAGCVCHWYNSCG-OH; disulfide 2-21, 11-17, 23-29 (inferred); N-terminus and C-terminus assumed) |  | 2.05 nM | Kd ([1]; hVEGF-A (8-109), Table 29): 1.2 nM
7 | GCDVXQPYWGCGPDIDCLSNCICHWYNSCG [VEGF_CKP9.63.12.12 M5Nle, X is norleucine] |  |  | improvement in cellular potency compared to parent molecule ([2]; Met5Nle variants vs parents): 1.5-2 ×
